The other results are listed elsewhere or left out. The full chains were built here from the parent and the listed change. Inactive controls read about 0.05.
B1: TEV protease; numbered along this chain (parent)
chain: MGESLFKGPRDYNPISSSICHLTNESDGHTTSLYGIGFGPFIITNKHLFRRNNGTLVVQSLHGVFKVKDTTTLQQHLVDGRDMIIIRMPKDFPPFPQKLKFREPQREERICLVTTNFQTKSMSSMVSDTSCTFPSGDGIFWKHWIQTKDGQCGSPLVSTRDGFIVGIHSASNFTNTNNYFTSVPKNFMELLTNQEAQQWVSGWRLNADSVLWGGHKVFMVKPEEPFQPVKEATQL

Variants of: B1
Experiment: raw area under fraction-flipped curve 0-4 h after induction (AUC4h, not background-subtracted), DNA-recorder readout of cleavage of the substrate (dimensionless); higher = more cleavage of the substrate by the protease variant
Details: temperature: 34 °C; time window: 0-4 h after rhamnose induction
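Note: Bxb1 expression induced with 0.2% (w/v) L-rhamnose at OD600 near 0.5, cultures sampled hourly, flipped fraction per protease–substrate barcode pair counted by paired-end Illumina sequencing.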

Variant | area with substrate ANLYFQS | area with substrate CNLYFQS | area with substrate FNLYFQS | area with substrate HNLYFQS | area with substrate INLYFQS | area with substrate LNLYFQS | area with substrate MNLYFQS | area with substrate PNLYFQS | area with substrate QNLYFQS | area with substrate SNLYFQS | area with substrate TNLYFQS | area with substrate VNLYFQS | area with substrate WNLYFQS | area with substrate DNLYFQS | area with substrate KNLYFQS | area with substrate YNLYFQS | area with substrate NNLYFQS | area with substrate GNLYFQS | area with substrate RNLYFQS
W212D | 0.0551 | 0.0456 | 0.0558 | 0.0417 | 0.0727 | 0.072 | 0.0607 | 0.0744 | 0.0669 | 0.0722 | 0.0423 | 0.0561 | 0.0595 | – | – | – | – | – | –
W212F | 0.0635 | – | – | 0.0572 | 0.0657 | 0.0849 | 0.0521 | 0.0717 | 0.056 | 0.0576 | 0.0642 | – | 0.0626 | 0.0714 | 0.0623 | 0.0576 | – | – | –
G213D | 0.0672 | 0.0437 | – | 0.0646 | – | – | 0.0963 | 0.0837 | 0.0675 | 0.0906 | – | 0.0598 | 0.0537 | – | – | 0.0672 | 0.0564 | – | –
G213M | 0.0382 | 0.0532 | 0.0459 | 0.0638 | 0.056 | – | 0.052 | 0.0545 | 0.0428 | – | 0.0489 | 0.0435 | 0.0503 | – | – | 0.0452 | 0.0569 | 0.0633 | –
G213W | 0.0308 | 0.0605 | 0.0477 | 0.0521 | – | 0.058 | – | 0.0584 | 0.045 | 0.0556 | 0.0551 | – | 0.0597 | – | 0.062 | 0.062 | 0.0512 | 0.0556 | –
G214A | 0.0658 | – | 0.0642 | 0.043 | 0.0409 | – | 0.072 | – | – | 0.0628 | 0.0584 | – | 0.0586 | 0.067 | 0.0606 | 0.0527 | 0.0905 | 0.0534 | 0.0661
H215E | 0.0674 | 0.0502 | – | 0.0667 | 0.058 | 0.06 | 0.0527 | 0.052 | – | 0.0642 | 0.0675 | 0.0743 | – | – | – | 0.0656 | 0.0661 | – | –
H215R | 0.0688 | 0.0616 | 0.0489 | 0.0576 | 0.0691 | 0.0608 | 0.0664 | 0.0902 | – | – | – | – | 0.062 | – | 0.0531 | – | 0.0606 | 0.0731 | –
F218L | 0.0675 | 0.058 | 0.055 | 0.0717 | 0.0385 | 0.0522 | 0.0575 | 0.0618 | 0.0665 | 0.0545 | 0.0568 | – | 0.0598 | – | 0.0576 | 0.0679 | 0.05 | – | 0.0537
V220A | 0.0746 | – | – | 0.0729 | 0.0535 | 0.0754 | – | 0.0643 | – | 0.0692 | 0.0727 | 0.0634 | – | 0.0868 | 0.048 | 0.0661 | 0.0498 | – | –
K221D | 0.0564 | 0.0625 | 0.0568 | 0.0457 | 0.0594 | 0.0595 | – | 0.0581 | – | 0.0557 | – | 0.0615 | 0.0854 | – | 0.079 | 0.0483 | – | – | 0.0228
P222Q | 0.0551 | 0.0755 | 0.066 | 0.0686 | 0.069 | 0.0585 | 0.0649 | 0.0559 | 0.0566 | 0.0627 | 0.0855 | – | 0.0602 | – | 0.0754 | – | 0.0587 | 0.0867 | –
P222Y | 0.0426 | 0.0573 | 0.0808 | 0.0665 | 0.0703 | 0.0604 | – | 0.0571 | 0.0638 | 0.0712 | 0.0699 | 0.077 | 0.0415 | – | – | – | 0.0523 | 0.0551 | –
E223C | 0.0632 | 0.104 | – | 0.0637 | 0.0615 | 0.0463 | 0.0675 | 0.0782 | – | 0.0612 | 0.0625 | 0.0671 | 0.0656 | – | – | 0.0578 | 0.0816 | 0.0633 | –
E223R | 0.0465 | 0.0663 | 0.0549 | 0.0572 | 0.0696 | – | 0.0705 | 0.0612 | 0.0671 | 0.0478 | 0.0665 | 0.0507 | 0.0637 | – | 0.0626 | – | 0.0636 | 0.0693 | –
F226A | 0.0619 | 0.0697 | – | 0.0673 | – | 0.0425 | 0.0727 | 0.067 | – | – | – | – | – | – | – | – | – | – | –
F226K | 0.0828 | 0.0842 | 0.0763 | 0.0516 | 0.0857 | – | 0.0641 | 0.0688 | – | – | 0.0613 | – | 0.0649 | – | 0.0689 | 0.063 | – | – | –
Q227T | 0.058 | 0.0766 | 0.0717 | 0.0561 | – | – | – | – | – | 0.0666 | – | – | 0.0627 | – | – | – | – | 0.0723 | –
K230L | 0.0545 | 0.0541 | 0.0641 | – | 0.0669 | 0.0685 | 0.0653 | 0.0669 | – | – | 0.0708 | – | 0.067 | – | 0.0586 | – | – | 0.0608 | –
K230T | 0.0731 | 0.0723 | 0.0708 | – | 0.0704 | 0.0643 | 0.0612 | – | – | 0.0685 | 0.0617 | 0.057 | 0.0562 | – | 0.0596 | 0.0579 | 0.0522 | 0.0556 | –
K230W | 0.0618 | 0.0629 | 0.0586 | 0.0665 | 0.0569 | – | – | 0.0407 | – | 0.0645 | 0.0688 | 0.0683 | 0.0903 | – | 0.0171 | 0.0586 | 0.0694 | 0.0503 | –
Q234H | 0.0653 | 0.0774 | 0.0491 | – | – | – | – | 0.0805 | – | – | 0.0853 | – | – | – | – | 0.0695 | 0.0672 | – | –
Q234R | 0.0079 | 0.0676 | 0.0382 | 0.0625 | 0.0657 | – | 0.0707 | 0.0578 | – | – | – | – | – | – | 0.0718 | – | – | – | –
G8V | – | 0.0646 | – | – | – | – | – | – | – | 0.0582 | – | – | 0.0729 | – | – | – | 0.0659 | – | –
N24L | – | 0.0741 | 0.0488 | 0.0859 | – | 0.0677 | 0.0945 | 0.0724 | 0.0784 | – | 0.0706 | – | 0.0599 | – | 0.0753 | 0.0663 | 0.0616 | 0.0686 | 0.0955
M88I | – | 0.0729 | 0.057 | 0.0741 | – | 0.0556 | – | – | 0.056 | 0.0654 | 0.062 | – | – | – | 0.0755 | – | 0.0694 | 0.0663 | –
G136M | – | 0.0573 | 0.0625 | 0.0798 | – | – | 0.0847 | 0.0668 | – | – | – | – | – | – | 0.0595 | – | 0.0391 | – | –
G8R | – | – | – | – | – | 0.0561 | – | – | – | 0.0699 | 0.0775 | – | – | – | 0.0601 | – | – | 0.0716 | –
